Measurements taken from PubChem BioAssay (NCATS).
The shares of active, inactive and inconclusive entries below differ from those in the screen. Potencies of inconclusive entries are left out as doubtful fits. Active and inactive are the calls of the source. Calls follow the shape of the dose curve; as a rule, active = well fitted cell-killing curve with a large enough effect; inconclusive = small, poorly fitted or top-dose-only effect; inactive = no such curve, though single readings can be large or run the other way.

Test: qHTS of pediatric cancer cell lines to identify multiple opportunities for drug repurposing: Primary screen for NB1643 cells (AID 1347099); also: nearly all actives have a fitted effect of over 50% in size
Details: NB1643 neuroblastoma viability, CellTiter-Glo luminescence, 48 h; activity change, negative = cytotoxic: at 46 µM (top of the series)
Source text: Drug repurposing or repositioning has been offered as a strategy for drug development in oncology programs. This approach has special potential for childhood cancers and other rare or orphan diseases, where the expected return on new drug development has been a disincentive to pharmaceuticals. […] In this project we exploit the poly-pharmacology of drugs to discover new indications via phenotypic screening of a panel of 19 well-characterized cell lines derived from solid tumors seen in children and adolescents. The goal is to identify approved drugs with previously unrecognized anticancer properties that has the potential to reveal new mechanisms and biological processes involved in carcinogenesis or drug resistance. We employed a titration-based paradigm (quantitative high-throughput screening or qHTS), where all compounds were tested at multiple concentrations for their effect on cell viability. Concentration-response curves (CRCs) were derived directly from the primary screen, and both potency and efficacy values were used to identify compounds with robust bioactivity profiles. We screened the NIH Chemical Genomics Center (NCGC) Pharmaceutical Collection (NPC) and Mechanism Interrogation Plate (MIPE) small molecule collections of approved and investigational compounds against these cell lines; and measured metabolically active cells after 48 hours of compound treatment as a proxy for cell viability. […] Assay Submitter: Nathalia J. Martinez, National Center for Advancing Translational Sciences, National Institutes of Health, Rockville, MD, USA; email: natalia.martinez@nih.gov Shen, M et al. Quantitative high-throughput phenotypic screening of pediatric cancer cell lines identifies multiple opportunities for drug repurposing. Oncotarget 2017 Dec 19;9(4):4758-4772. PMID 29435139.
The cells were obtained from University of North Carolina (UNC), Pediatric Preclinical Testing Program (PPT), and Coriell Institute (CI). qHTS cell viability assay: Cells were assayed in growth media at a density of 500-1,000 cells/well. Five microliters of cells were dispensed into 1,536-well, white, solid-bottom, TC-treated plates (Greiner Bio One) using a multidrop dispenser and incubated at 37 degrees C, 5% CO2, under a humidified atmosphere for 5 hours. Twenty-three nanoliters of compounds and controls (neutral control DMSO or positive control bortezomib at final concentration of 2.3 µM) were subsequently transferred by Kalypsys pintool. For primary screens, the MIPE collection was tested at 11-point dilutions (final concentrations range from 0.78 nM to 46 µM) and the NPC collection at 8-point dilutions (final concentrations range from 0.59 nM to 46 µM). Compounds tested in follow-up screens were assayed at 11-point dilutions. Cells were incubated for 48 hours, followed by addition of 3 µL of CellTiter-Glo (Promega). After a 15 min incubation at room temperature, samples were analyzed for luminescence intensity using a ViewLux High-throughput CCD imager equipped with clear filters.
Potency is read from the fitted curve at half-maximal effect; tags tell the direction and shape of the fitted curve.

SMILES	Potency	activity change, negative = cytotoxic
CCn1cc(C(=O)O)c(=O)c2cc(F)c(N3CCNCC3)cc21	inactive	
O=c1[nH]c(=O)n([C@H]2C[C@H](O)[C@@H](CO)O2)cc1C(F)(F)F	inactive	
N[C@@H]1CONC1=O	inconclusive [cytotoxic, single point]	
Cl/C(=C\n1cncn1)c1ccc(Cl)cc1Cl	inactive	
Cc1ccc(-c2ccccc2C#N)cc1	inactive	
Nc1nnnn1-c1ccccc1	inactive	
CN1C(CCl)Nc2cc(Cl)c(S(N)(=O)=O)cc2S1(=O)=O (stereo not given)	inactive	
CCCCc1nc(Cl)c(CO)n1Cc1ccc(-c2ccccc2-c2nn[nH]n2)cc1	inactive	
C=C1c2cccc(O)c2C(O)=C2C(=O)[C@]3(O)C(O)=C(C(N)=O)C(=O)[C@@H](N(C)C)[C@@H]3[C@@H](O)[C@H]12	inactive	
C[C@]12CCC(=O)C=C1CC[C@@H]1[C@@H]2[C@@H](O)C[C@@]2(C)[C@H]1CC[C@]2(O)C(=O)COC(=O)CCC(=O)O	inconclusive [cytotoxic, single point]	
CN1[C@@H]2CCC[C@@H]1CC(NC(=O)c1nn(C)c3ccccc13)C2 (stereo not given in full)	inconclusive [cytotoxic, partial curve]	
O=C(NCC(O)CO)c1c(I)c(C(=O)NCC(O)CO)c(I)c(N(CCO)C(=O)CO)c1I (stereo not given)	inactive	
COc1cc([C@@H]2c3cc4c(cc3[C@@H](O[C@@H]3O[C@@H]5CO[C@@H](c6cccs6)O[C@@H]5[C@H](O)[C@@H]3O)[C@H]3COC(=O)[C@H]23)OCO4)cc(OC)c1O	active: 0.132 µM	
c1ccc(-c2ccc(C(c3ccccc3)n3ccnc3)cc2)cc1 (stereo not given)	inconclusive [cytotoxic, single point]	
CN1Cc2c(N)cccc2C(c2ccccc2)C1 (stereo not given)	inactive	
Oc1cccc(O)c1	inactive	
O=C(CO)[C@@H](O)[C@H](O)[C@@H](O)CO	inactive	
CC1(C)O[C@@H]2C[C@H]3[C@@H]4C[C@H](F)C5=CC(=O)C=C[C@]5(C)[C@@]4(F)[C@@H](O)C[C@]3(C)[C@]2(C(=O)CO)O1	inactive	
CCCCNc1cc(C(=O)O)cc(S(N)(=O)=O)c1Oc1ccccc1	inactive	
C/C=C/C=N/NC(=O)c1ccncc1	inconclusive [cytotoxic, single point]	

SMILES	Potency	activity change, negative = cytotoxic
O=C(O)CCCCCCCC(=O)O	inactive	
C[C@H]1NCc2cc(-c3ccc4c(=O)c(C(=O)O)cn(C5CC5)c4c3OC(F)F)ccc21	inactive	
CC(C)(Oc1ccc(Cl)cc1)C(=O)O	inactive	
Cc1cc(C)nc(NS(=O)(=O)c2ccc(N)cc2)n1	inactive	
C[N+]1(C)CCC(OC(=O)C(O)(c2ccccc2)C2CCCC2)C1 (stereo not given)	inactive	
Oc1c(Cl)cc(Cl)cc1Sc1cc(Cl)cc(Cl)c1O	inconclusive [cytotoxic, single point]	
Nc1ccn(C[C@@H](CO)OCP(=O)(O)O)c(=O)n1	inactive	
CC(C)NCC(O)c1cc(O)cc(O)c1 (stereo not given)		inconclusive: -30.1% [cytotoxic]
Cc1ccsc1C(=CCCN1CCC[C@@H](C(=O)O)C1)c1sccc1C	inactive	
CCCCCCCCCCCCCCCCOP(=O)([O-])OCC[N+](C)(C)C	inconclusive [cytotoxic, single point]	
CCNC(=O)NCc1cccc(Cl)c1	inactive	
CC(=O)Nc1ccc(OCC(O)CNC(C)C)cc1 (stereo not given)	inconclusive [cytotoxic, single point]	
c1ccc2c(CC3=NCCN3)cccc2c1	inactive	
CC[C@H]1CN2CCc3cc(OC)c(OC)cc3[C@@H]2C[C@@H]1C[C@H]1NCCc2cc(OC)c(OC)cc21	inconclusive [cytotoxic, full curve]	
CC(Cc1ccccc1)(NC(=O)CN)c1ccccc1 (stereo not given)	inactive	
CN(C)CCN1CCN(c2cccc(Cl)c2)C1=O	inactive	
OCCc1ccccc1	inactive	
Cc1ccc(S(=O)(=O)NC(=O)NN2CCCCCC2)cc1	inactive	
CN=C(NC#N)Nc1ccc(C2=NNC(=O)CC2C)cc1 (stereo not given)	inactive	
O=c1[nH]c(=O)n([C@H]2C[C@H](O)[C@@H](CO)O2)cc1I	inactive	
